This is an account of results in the antibiotic and cytotoxicity screens of Wong et al. (2023).

The other results are listed elsewhere or left out.

One experiment relates to HSkMC. The experiment is described as follows: cytotoxicity call (relative viability < 0.9). The settings on record: 10 µM.
In another experiment the test system is HepG2. The experiment is described as follows: cytotoxicity call (relative viability < 0.9). The settings on record: 10 µM.
The subject of a further experiment is S. aureus RN4220. Kind of experiment: growth inhibition call (relative growth <= 0.2). The settings on record: 50 µM.

Regarding `COc1cccc(NC(=O)N2C[C@H](O)COC[C@H]3O[C@@H](CC(=O)NCCCN4CCOCC4)CC[C@@H]32)c1`, the cytotoxicity call in the experiment with HSkMC and in the experiment on HepG2 was “inactive” in each case. Also, the growth inhibition call in the experiment with S. aureus RN4220 was “inactive”.
Take `COc1ccccc1S(=O)(=O)N(C)C[C@H]1Oc2cc(Br)ccc2S(=O)(=O)N([C@@H](C)CO)C[C@H]1C`: the cytotoxicity call with HSkMC and in the experiment on HepG2 was “inactive” in each case. Moreover, the growth inhibition call in the experiment with S. aureus RN4220 was “inactive”.
Turning to `CCN(CC)CCNC(=O)c1cc(Cl)c(N)cc1OC.Cl`, the cytotoxicity call in the experiment with HSkMC and in the experiment with HepG2 was “inactive” throughout. For the same compound, the growth inhibition call in the experiment on S. aureus RN4220 was “inactive”.
As to `COc1cccc(C#Cc2ccc3c(c2)O[C@H](CN(C)C(=O)c2ccccn2)[C@H](C)CN([C@H](C)CO)S3(=O)=O)c1`, in the experiment on HSkMC, the cytotoxicity call was “inactive”. In addition, the cytotoxicity call in the experiment on HepG2 is “active”. For the same compound, the growth inhibition call with S. aureus RN4220 is “inactive”.
With `C[C@@H]1CN([C@@H](C)CO)S(=O)(=O)c2ccc(C#CC3(O)CCCC3)cc2O[C@H]1CN(C)C(=O)Nc1cccc(F)c1`, the cytotoxicity call in the experiment with HSkMC and with HepG2 was “inactive” in each case. Moreover, in the experiment with S. aureus RN4220, the growth inhibition call is “inactive”.
For the compound `C[C@H](NC(=O)C[C@H]1C[C@H]2c3cc(NC(=O)Nc4ccc(C(F)(F)F)cc4)ccc3O[C@H]2[C@@H](CO)O1)c1ccccc1`, the cytotoxicity call with HSkMC and in the experiment with HepG2 was “inactive” throughout. For the same compound, the growth inhibition call in the experiment on S. aureus RN4220 was “inactive”.
Consider `C[C@@H]1CCCCO[C@@H](CN(C)S(=O)(=O)c2ccccc2)[C@@H](C)CN([C@H](C)CO)C(=O)c2cc(NS(C)(=O)=O)ccc2O1`, for which the cytotoxicity call with HSkMC and with HepG2 was “inactive” each time. For the same compound, the growth inhibition call in the experiment with S. aureus RN4220 was “inactive”.
As for `N[C@@H](Cc1ccccc1F)C(=O)O`, the cytotoxicity call in the experiment on HSkMC and with HepG2 was “inactive” in each case. Moreover, in the experiment with S. aureus RN4220, the growth inhibition call was “inactive”.
For `C[C@H](CO)N1C[C@H](C)[C@H](CN(C)C(=O)Nc2ccc3c(c2)OCO3)Oc2ncc(Br)cc2C1=O`, the cytotoxicity call with HSkMC and in the experiment with HepG2 was “inactive” each time. In the experiment with S. aureus RN4220, the growth inhibition call was “inactive”.
As to `CN(C)C(=O)c1ccc(-c2cccc(-c3nc(C(=O)NC4CCC4)cc4c3[C@H](CCO)N([S@@](=O)C(C)(C)C)C4)c2)cc1`, the cytotoxicity call in the experiment on HSkMC and with HepG2 was “inactive” throughout. Also, in the experiment with S. aureus RN4220, the growth inhibition call was “inactive”.
As to `CCOP(=O)(CC(=O)O[C@H]1[C@H](OC(=O)Nc2ccccc2-c2ccccc2)[C@H](OC(=O)Nc2ccccc2-c2ccccc2)[C@@H](OC)O[C@@H]1COC(=O)NCCCCCC(=O)NO)OCC`, the cytotoxicity call in the experiment on HSkMC was “inactive”. The cytotoxicity call with HepG2 was “active”. In addition, in the experiment on S. aureus RN4220, the growth inhibition call was “inactive”.
With `CC(C)NC(=O)Nc1cccc2c1O[C@@H](CN(C)S(=O)(=O)c1ccc(Cl)cc1)[C@@H](C)CN([C@@H](C)CO)C2=O`, the cytotoxicity call with HSkMC and in the experiment with HepG2 was “inactive” in each case. In addition, the growth inhibition call in the experiment with S. aureus RN4220 was “inactive”.
On to `C[C@H](CO)N1C[C@H](C)[C@H](CN(C)CC2CC2)Oc2ccc(NS(=O)(=O)c3ccccc3)cc2C1=O`, for which the cytotoxicity call with HSkMC and with HepG2 was “inactive” each time. Also, the growth inhibition call in the experiment on S. aureus RN4220 was “inactive”.
`CC(C)NC(=O)N(C)C[C@H]1Oc2ccc(NS(=O)(=O)c3ccccc3)cc2CC(=O)N([C@@H](C)CO)C[C@H]1C`: the cytotoxicity call in the experiment on HSkMC and in the experiment with HepG2 was “inactive” throughout. Besides, the growth inhibition call with S. aureus RN4220 was “inactive”.
As to `O=C(O)CCCCN(CCc1ccccc1OCc1ccc(CCc2ccccc2)cc1)Cc1ccc(C(=O)O)cc1`, the cytotoxicity call in the experiment on HSkMC and with HepG2 was “inactive” each time. Besides, the growth inhibition call in the experiment with S. aureus RN4220 was “inactive”.
Consider `C[C@@H]1CCCCO[C@@H](CN(C)Cc2ccc3c(c2)OCO3)[C@@H](C)CN([C@H](C)CO)C(=O)c2cc(NS(=O)(=O)c3cccs3)ccc2O1`, for which the cytotoxicity call with HSkMC and in the experiment with HepG2 was “inactive” throughout. In addition, the growth inhibition call with S. aureus RN4220 is “inactive”.
As for `Cc1noc(C)c1S(=O)(=O)N(C)C[C@@H]1OCCCC[C@H](C)Oc2ccc(NC(=O)Nc3ccc(C(F)(F)F)cc3)cc2C(=O)N([C@H](C)CO)C[C@H]1C`, the cytotoxicity call with HSkMC and in the experiment with HepG2 was “inactive” throughout. In addition, in the experiment with S. aureus RN4220, the growth inhibition call was “inactive”.
Consider `C[C@@H]1CN([C@H](C)CO)C(=O)Cc2cc(NS(=O)(=O)c3ccccc3)ccc2O[C@@H]1CN(C)Cc1ccncc1`, for which the cytotoxicity call with HSkMC and in the experiment with HepG2 was “inactive” in each case. Moreover, the growth inhibition call with S. aureus RN4220 was “inactive”.
Take `O=C(NCO)c1ccc([N+](=O)[O-])cc1`: the cytotoxicity call in the experiment with HSkMC and with HepG2 was “inactive” throughout. In addition, in the experiment with S. aureus RN4220, the growth inhibition call was “inactive”.
In the case of `COc1ccc2c3c(n(c2c1)C)[C@H](CO)N(C[C@]13CN(C1)S(=O)(=O)c1ccccc1)C(=O)c1cccnc1`, the cytotoxicity call in the experiment with HSkMC and with HepG2 was “inactive” each time. Further, in the experiment with S. aureus RN4220, the growth inhibition call was “inactive”.
As to `Cc1nc2c(c(C)nn2-c2ccccc2)c(C)c1CN`, the cytotoxicity call in the experiment on HSkMC and with HepG2 was “inactive” each time. In the experiment on S. aureus RN4220, the growth inhibition call is “inactive”.
With `COc1ccc(-c2cc(=O)c3c(O)c(OC)c(OC4OC(COC5OC(C)C(O)C(O)C5O)C(O)C(O)C4O)cc3o2)cc1` (stereo unspecified), the cytotoxicity call in the experiment on HSkMC and in the experiment on HepG2 was “inactive” in each case. Also, in the experiment on S. aureus RN4220, the growth inhibition call was “inactive”.
For the compound `O=C(C[C@H]1C[C@H]2c3cc(NC(=O)C4CCOCC4)ccc3O[C@H]2[C@@H](CO)O1)NCc1cc(F)ccc1F`, the cytotoxicity call in the experiment on HSkMC and in the experiment with HepG2 was “inactive” each time. Besides, the growth inhibition call with S. aureus RN4220 was “inactive”.
As to `COc1ccc(CN(C)C[C@H]2OCCCC[C@H](C)Oc3ccc(NC(=O)Nc4ccc(OC)cc4)cc3C(=O)N([C@H](C)CO)C[C@H]2C)cc1`, in the experiment on HSkMC, the cytotoxicity call was “inactive”. In the experiment on HepG2, the cytotoxicity call is “active”. The growth inhibition call with S. aureus RN4220 was “inactive”.
As to `C[C@@H]1CCCCO[C@@H](CN(C)S(=O)(=O)c2ccc(F)cc2)[C@@H](C)CN([C@H](C)CO)C(=O)c2cc(NC(=O)Nc3cccc4ccccc34)ccc2O1`, the cytotoxicity call with HSkMC and in the experiment on HepG2 was “inactive” each time. Moreover, the growth inhibition call in the experiment on S. aureus RN4220 was “inactive”.
For `C[C@H]1COC(=O)[C@H](NC(=O)OCC2c3ccccc3-c3ccccc32)CC=CC[C@@H](CC(=O)NCCO)C(=O)N1`, the cytotoxicity call in the experiment on HSkMC (human skeletal muscle cells) and in the experiment with HepG2 was “inactive” each time. Further, in the experiment on S. aureus RN4220, the growth inhibition call is “inactive”.
Turning to `O=C(Oc1cccc2cccnc12)c1ccccc1`, the cytotoxicity call in the experiment with HSkMC is “inactive”. In addition, the cytotoxicity call in the experiment on HepG2 is “active”. In addition, the growth inhibition call with S. aureus RN4220 was “inactive”.
